Data taken from the supplement of paper PMC12067093, “Discovery and optimisation of a covalent ligand for TRIM25 and its application to targeted protein ubiquitination” (Chemical Science, 2025).
Of roughly 21,000 targets only a part is listed; those with the largest changes were picked by preference.

Compound: Cc1cc(ccc1-c1ccccc1)C(=O)N1CCCN(CC1)C(=O)CCl [compound 10]
Experiment: probe-labelled cysteine peptide fold change vs DMSO (competition) (log2 fold change); higher = less target engagement (more negative = stronger competition)
Conditions: THP-1, incubation time: 4 h
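Also: competitive profiling in live THP-1 cells: cysteine peptides tagged with an iodoacetamide desthiobiotin (IA-DTB) probe, intensity after compound treatment relative to DMSO-treated cells.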

Target	probe-labelled cysteine peptide fold change (10 µM)	probe-labelled cysteine peptide fold change (50 µM)
GLRX5_Q86SX6_67_GTPEQPQCGFSNAVVQILR (UniProt Q86SX6)	-1.03	-2.24
GOT2_P00505_295_VGAFTMVCK (UniProt P00505)	0.161	-0.0058
GPX1_P07203_115_CEVNGAGAHPLFAFLR (UniProt P07203)	-0.00215	-0.045
HCFC1_P51610_227_KSKLVIYGGMSGCR (UniProt P51610)	0.0274	0.366
GLA_P06280_378_GVACNPACFITQLLPVKR (UniProt P06280)	0.251	-0.118
GPX4_P36969_102_ILAFPCNQFGK (UniProt P36969)	0.649	0.575
HK3_P52790_409_AAQLCAAALAAVLSCLQHSR (UniProt P52790)	-0.059	0.0868
GSN_P06396_228_ATEVPVSWESFNNGDCFILDLGNNIHQWCGSNSNR (UniProt P06396)	0.116	0.015
HCCS_P53701_46_GCPVNTEPSGPTCEK (UniProt P53701)	-0.347	-1.01
FTH1_P02794_91_KPDCDDWESGLNAMECALHLEK (UniProt P02794)	1.54	0.825
FLII_Q13045_560_KACSAIHAVNLR (UniProt Q13045)	-0.147	-0.868
FN3KRP_Q9HA64_24_ATGHSGGGCISQGR (UniProt Q9HA64)	-0.318	-1.31
GID8_Q9NWU2_139_QRETEAALEFAQTQLAEQGEESRECLTEMER (UniProt Q9NWU2)	0.145	0.0196
HERC2_O95714_4308_VACGSAHTLAWSTSK (UniProt O95714)	0.156	0.174
HERC1_Q15751_4811_VDRPYDSLPTSQTCFFQLR (UniProt Q15751)	-0.0658	-0.697
GGA2_Q9UJY4_93_EALYALTVLEMCMNHCGEK (UniProt Q9UJY4)	0.118	-0.244
GOT2_P00505_382_EGSTHNWQHITDQIGMFCFTGLKPEQVER (UniProt P00505)	0.125	0.0313
GATAD1_Q8WUU5_223_KMEYLEFVCHAPSEYFK (UniProt Q8WUU5)	0.112	-0.000608
GAB1_Q13480_213_STSSETDCNDNVPSHK (UniProt Q13480)	0.0157	-0.0415

Target	probe-labelled cysteine peptide fold change (10 µM)	probe-labelled cysteine peptide fold change (50 µM)
H2AFY_O75367_276+286_FVIHCNSPVWGADKCEELLEK (UniProt O75367)	-0.119	-0.319
HEATR5B_Q9P2D3_870_CAAGEALGR (UniProt Q9P2D3)	-0.0657	-0.132
GATAD2B_Q8WXI9_308_GPPKPGLVRTTTPNMNPAINYQPQSSSSVPCQR (UniProt Q8WXI9)	-0.0711	-1.45
HDGF_P51858_108_KSCVEEPEPEPEAAEGDGDKK (UniProt P51858)	-0.377	-1.45
FMC1_Q96HJ9-2_256_VCEVCSAYLGLHDNDR<|>LUC7L_Q9NQ29_190_VCEVCSAYLGLHDNDR (UniProt Q9NQ29+Q96HJ9)	0.16	-0.243
GALNT1_Q10472_442_NVETNQCLDNMAR (UniProt Q10472)	-0.0578	-0.249
HADHA_P40939_322_TGIEQGSDAGYLCESQK (UniProt P40939)	-0.303	-0.276
HCFC2_Q9Y5Z7_215_MYVFGGMCGAR (UniProt Q9Y5Z7)	-0.131	-0.281
GTPBP2_Q9BX10_249_TAEEICESSSK (UniProt Q9BX10)	-0.0237	0.126
HDAC2_Q92769_13_KVCYYYDGDIGNYYYGQGHPMKPHR (UniProt Q92769)	-0.0165	-0.651
GPD1L_Q8N335_202_ITVVDDADTVELCGALK (UniProt Q8N335)	-0.101	0.025
HK2_P52789_823_EVCTVVAR (UniProt P52789)	0.0182	0.0259
FSCN1_Q16658_80_DGNVTCER (UniProt Q16658)	-0.148	-0.0453
HLA-C_P04222_345_GGSCSQAASSNSAQGSDESLIACKA (UniProt P04222)	-0.172	-1.32
FKBP5_Q13451_103_KGEICHLLCK (UniProt Q13451)	0.0874	0.295
HCCS_P53701_66_AYEYVECPIR (UniProt P53701)	-0.239	-0.53
HAUS7_Q99871_348_KQQGEQICWGGSSSVMSLATK (UniProt Q99871)	-0.205	-1.08
HBS1L_Q9Y450_529_LLAMPPNETCTVK (UniProt Q9Y450)	-0.236	0.00185
